± gives the standard deviation of the averaged measurements. The list shows a part of the results.
system: PfAP2-I AP2 domain 3 (GST-tagged); test: gcPBM binding intensity (ln(normalized median fluorescence intensity)); higher = stronger DNA binding
Outline: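 Using an Agilent 4 × 180k array, primer-extended double-stranded 36-bp intergenic genomic probes and negative controls were exposed for 1 h to GST-fused P. falciparum DNA-binding domains expressed in E. coli. Binding was carried out in 1× PBS with 1% milk, 0.2 mg/ml BSA, 0.5% salmon testes DNA and 0.03% Triton X-100, and protein was detected with Alexa488 anti-GST antibody and a 488 nm scan. Binding intensity is the highest Masliner-normalised natural-log median intensity across replicate spots of either probe orientation.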

| Sequence | gcPBM binding intensity (ln) |
| --- | --- |
| TGTATAAAACATGGGTGTACTGAACTCAATCATATA [XGTACX_site1215] | 7.84 ± 0.4 |
| AAAATAACAAAATAAAGTACTTTTAAAAGATATAAT [XGTACX_site7632] | 7.87 ± 0.6 |
| AAAAGTAACAAAGCTACACACATTTAAATAAACATA [CACACA_site1421] | 7.59 ± 0.57 |
| TTTTTAATTCAAACAATAATATGTTATATTTCAAAT [TGCATGCA_negctrl_site27] | 7.51 ± 0.19 |
| GATTTTCTAATTTCTACACACATATAAGAATATTCA [CACACA_site7340] | 7.8 ± 0.54 |
| TTTATTTCTATATTTACATGCAAAGGGTTAGTTATA [TGCATGCA_site983] | 7.63 ± 0.47 |
| AAGAAAAAGAATAGACGGACAACTAATATAAAATAT [XGTACX_site7905] | 7.79 ± 0.73 |
| GATCTTTTTTTTCTTACTTTACAATTTTTTTTTTAC [XGTACX_negctrl_site101] | 7.83 ± 0.94 |
| TTTTTTTTTTTCATGTGTACATATATTTTCACTTTA [XGTACX_site4475] | 8.21 ± 0.62 |
| GTTTTACACAGACATGCATGTGAAAATTTGATGGTA [TGCATGCA_site308] | 7.87 ± 0.56 |
| TATCATCATGTATGTACACACATACCTATATTATGT [CACACA_site6768] | 7.78 ± 0.47 |
| AATTAAATTACTTATACACACATAAAATGTCTGTAT [CACACA_site997] | 7.76 ± 0.34 |
| AAATTATGAACATATTGTACATATATATATATATAT [XGTACX_site8269] | 9.12 ± 0.26 |
| CATGTATGTACCATGGTGCAACAATATTTTTAACAA [GTGCAC_site9597] | 10.3 ± 0.38 |
| ATTATATAAATTATATGTACGTATTTTTTTTTTTTT [XGTACX_site1908] | 8.1 ± 0.085 |
| CAAATAAAAATAAGGAGTACAATTAAAAAAGGAAGG [XGTACX_site4366] | 8.03 ± 0.64 |
| GAAAAGAAAAATAAACGTACATAAATATTAACATTA [XGTACX_site8213] | 7.47 ± 0.56 |
| AAAATAAAAAAGTGTACACATATTAAAATGTATTTA [CACACA_site4424] | 8.15 ± 0.11 |
| TCATTGTTAAGCTGAAGTACTTATAATTACATCGAG [XGTACX_site6340] | 7.75 ± 0.35 |
| AATATATTTTAATATACACACATATCTGCTCTTTAA [CACACA_site6130] | 7.67 ± 0.5 |
| TAAAATTATATAAAGGAACACACATTTTATTTTATT [CACACA_site8423] | 7.66 ± 0.57 |
| TATTAGCATGTTATTACACACAATATAAAATATATA [CACACA_site1401] | 7.86 ± 0.38 |
| TGTCAATCATATAAATGTACATTTTAAATGAGGTGT [XGTACX_site7391] | 7.94 ± 0.59 |

| Sequence | gcPBM binding intensity (ln) |
| --- | --- |
| TTTTATAAATATTTTTGTACACATTTAAATATTATT [XGTACX_site4973] | 7.86 ± 0.45 |
| TTTTCATATATTTATTGTACATATTACATATATAAT [XGTACX_site2425] | 8.04 ± 0.5 |
| AGAGAGAACGGTATAACATGCAATAAATTTCAGAAG [TGCATGCA_site423] | 7.75 ± 0.76 |
| TTTTTTTAATAAAAGTGTACCAAATTATATACACAT [XGTACX_site6811] | 7.8 ± 0.49 |
| ATTTATAAATCAAAGTGTACATATGTTTTATTTTTT [XGTACX_site804] | 7.82 ± 0.53 |
| ATCGGTAATATTAACACACACATTTATTTATATTTA [CACACA_site6638] | 7.96 ± 0.58 |
| TTTTATTATATGGAGGTGCATATATAATAATATAAT [GTGCAC_site9477] | 10.7 ± 0.71 |
| ATGTATGTAATAAAAAGTACATATGTTCATAATAAA [XGTACX_site842] | 7.86 ± 0.51 |
| TTCTTTTTAAATATACTAATTATGTATAAAACAGAA [GTGCAC_negctrl_site131] | 7.67 ± 0.39 |
| TTTTTTTTTTTTTTAACACACATATAAATATTTTTC [CACACA_site6985] | 8.11 ± 0.49 |
| AAATGGAGTTAATATTGTACATATATATATATATAT [XGTACX_site5452] | 9.33 ± 0.69 |
| TTTTTCTATTCCATTCAACACACAAAAATGTATGCT [CACACA_site8268] | 7.89 ± 0.64 |
| AAAGTTTTAAGAAAATGTACATAAGTATACATATAT [XGTACX_site1293] | 7.61 ± 0.68 |
| ATTCTTGTTATATAAGGTACAGAACAAAATATAAAA [XGTACX_site5510] | 8.04 ± 0.63 |
| TTTGGGATAAAACAAAGTACTAACAAAATATATAAT [XGTACX_site8240] | 7.96 ± 0.63 |
| TGCATTTTACTTGTTACACACATATAAAATTAACCA [CACACA_site7387] | 7.91 ± 0.44 |
| TACAAGTATAAATAAGCACACATGTGTATATGTACA [CACACA_site7911] | 8.15 ± 0.3 |
| TTAGAAGGGATTAAAGTGCAAAATAGGATTAGAGTA | 10.085 ± 0.007 |
| TCTTATTTAATTAAACAAAAGAAAAAGAAAGAAAAG [CACACA_negctrl_site1569] | 7.71 ± 0.49 |
| TTTTTTTTTCCTTCTTGTACATATTATATATACATA [XGTACX_site5988] | 8.03 ± 0.61 |
| TGGAACGTAATAAAATGTACATACGTTTTTCATATG [XGTACX_site6229] | 7.52 ± 0.64 |
| GACAAATTAATCGATTGTACACAATTTGTTTCGTTG [XGTACX_site35] | 7.83 ± 0.66 |
| AACACATACATATATGCACACATTTTATTCCATTAT [CACACA_site2834] | 9.46 ± 0.26 |

| Sequence | gcPBM binding intensity (ln) |
| --- | --- |
| TTTTTTTTTTTTTGTACATGCAAATATTATGAACAC [TGCATGCA_site571] | 8.28 ± 0.53 |
| TTCACATATATATAACGTACATTATTATTATTCTGA [XGTACX_site6006] | 7.82 ± 0.42 |
| AATATAACTTTTTGCACACTTAATTTTTTTTTTTAA [CACACA_site3365] | 9.79 ± 0.11 |
| TAACAAAAAGCACTTAGTACATATATATATATATAT [XGTACX_site1099] | 9.33 ± 0.27 |
| AGGTAATATACTAAATGTACAGAAAAACGAATTTTT [XGTACX_site2977] | 7.8 ± 0.85 |
| TATATTTATTATAACACACACATATTTATATTATAG [CACACA_site6628] | 7.76 ± 0.35 |
| TTTCTTTTTAAATATATACACACCGGGTGTACATAT [CACACA_site3345] | 7.88 ± 0.35 |
| AATGAAATAATACAATGTACGTTAAAAAAAAATAAA [XGTACX_site7928] | 7.78 ± 0.59 |
| GTATTATTTTATGATGCATGTGTATTTCATATATGC [TGCATGCA_site660] | 7.74 ± 0.49 |
| TAATATCAAACCTATAGTACATAAGGTATAAAAAAG [XGTACX_site3533] | 7.83 ± 0.57 |
| GTTAAGTGTATATATACACACATATGTAATACATGA [CACACA_site3048] | 8.17 ± 0.41 |
| TAAAAATATATGTATACACACATATATATATATATA [CACACA_site3951] | 9.32 ± 0.51 |
| AAAAAAAGTGACTCCTTACACACTTTACATAATTTA [CACACA_site820] | 7.59 ± 0.51 |
| AATATTGAAATAACGCGTACAAAAAAAAGTTATATT [XGTACX_site6559] | 8.12 ± 0.56 |
| TAATTAAAATTATATATTAGAAAAAACATATAAAAC [CACACA_negctrl_site190] | 7.79 ± 0.64 |
| ATATGTAGAATAAAAAAAAAAAAAAAAAAAAAAAAT [CACACA_negctrl_site621] | 7.61 ± 0.4 |
| ATGTTATATTATAAAAGTACATTTTATTTTTATTTA [XGTACX_site4365] | 7.87 ± 0.44 |
| TTAATTTATAAAAACACACACAGGTAAAAAGGTGCA [CACACA_site1177] | 8.13 ± 0.59 |
| ATTTCCTTTTTCTGTTGTACTCATAAAATAATATGT [XGTACX_site7234] | 8.32 ± 0.42 |
| ATTTATTTATTTATATGTACATATATATATATATAT [XGTACX_site339] | 9.36 ± 0.42 |
| GATGGAATCTAATTTACATGCAGTGATATAATAAAT [TGCATGCA_site1031] | 7.98 ± 0.71 |
| TAATAATAACCGTTATGTACACAATTTTGTGAACAT [XGTACX_site8053] | 7.92 ± 0.18 |
| TACAGACAGAAACACACACACACGCATAAAAAAAAA [CACACA_site1514] | 8.33 ± 0.52 |

| Sequence | gcPBM binding intensity (ln) |
| --- | --- |
| TATACAATATTTATAACACACATATTTATATAAACT [CACACA_site6932] | 7.79 ± 0.47 |
| ACTAAACAATATGTATGTACATATTTTACATATAAT [XGTACX_site3318] | 7.89 ± 0.4 |
| AGAACATTTTCTCAGTGTACTTATATATTTGACATA [XGTACX_site6541] | 7.7 ± 0.4 |
| ACTTCCTATATTTATGCATGCATTTTATTAAAAAAT [TGCATGCA_site747] | 8.73 ± 0.67 |
| ATATATCATGAACCTTGTACGTATATATATATATAT [XGTACX_site239] | 9.52 ± 0.64 |
| ATTAATGATTTTTGTTGTACATTATTAATTTACATT [XGTACX_site544] | 7.83 ± 0.46 |
| ATGCGTATACTAAGAACACACAAGTTACTTGGTGTT [CACACA_site1625] | 7.49 ± 0.76 |
| CATACATACATACATACACACATACATATGTATTTA [CACACA_site5384] | 8.9 ± 0.47 |
| TATTTTATATTTCATTTGTTATTTTTCTTGGTTCTA [CACACA_negctrl_site33] | 7.6 ± 0.73 |
| CAACACTTTCAAAAATGTACGTACAAATGTATTTTA [XGTACX_site6713] | 7.76 ± 0.38 |
| AGTTTCCATATGAGGTGTACATATATAATTTATTAT [XGTACX_site2369] | 8.02 ± 0.5 |
| ACAAAATAAAGACACACACACAAACACAAAAAAATA [CACACA_site7568] | 7.87 ± 0.21 |
| CAAAAATAACGAGTCAAACACACATATATATATATA [CACACA_site2038] | 9.4 ± 0.35 |
| AAAGGGATAACACCAAAAAAAATAAAAATAAAAATA [GTGCAC_negctrl_site680] | 7.74 ± 0.61 |
| TCAAGAATTTTAAAGAGTACATAAAACAATAATATA [XGTACX_site3923] | 7.63 ± 0.47 |
| TTGCAAATATATGGTTGTACTCAAAAAAAAAAAAAA [XGTACX_site6975] | 8.12 ± 0.52 |
| TATGCACCCAGACACACACACACAACTAAAAAATAA [CACACA_site2567] | 8.58 ± 0.071 |
| TTTGTAGATTTTGTAACACACACATATATATACATA [CACACA_site8757] | 7.71 ± 0.54 |
| TCTTTCTATTTATAATGTACTCAAAATTATTCTATA [XGTACX_site4867] | 7.75 ± 0.68 |
| AAAATATAATATATTGCACACAAAAAGTGAATTATT [CACACA_site8489] | 10 ± 0.62 |
